The supplement of paper PMC8007513
Counter-ions that a name gives are not always drawn. ± gives the standard error. Hit rate of the full screen: of about 1,300 compounds, about 75 (6%) showed an effect of 50% or more. Some of the results follow.

System: Trichoderma virens ATCC 9645
Assay: growth yield (OD600) relative to untreated control; higher = less growth inhibition
Settings: compound concentration: 100 uM
How it was run: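 Trichoderma virens ATCC 9645 spores from 7-day potato dextrose agar plates were suspended in potato dextrose broth at 15,000 spores ml^−1. Aliquots of 100 μl with library compounds at 100 μM final, with or without a co-applied biocide at 200 ng ml^−1, were grown in 96-well plates at 30 °C. OD600 was read at 40 h and 72 h on a BioTek EL800. Growth is expressed relative to the control without either agent, as means of duplicate screens.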

Structure (SMILES) | growth yield (40 h) [%] | growth yield (72 h) [%]
CCN(CCCc1ccccc1)CCCc1ccccc1 [Alverine citrate salt] | 97.85 ± 0.95 | 98.2 ± 2.1
O=P(O)(O)C(O)(Cc1cccnc1)P(=O)(O)O [Risedronic acid monohydrate] | 102.9 ± 0.95 | 101.2 ± 0.32
CCN(CC)C(=O)N1CCN(C)CC1 [Diethylcarbamazine citrate] | 101 ± 2.5 | 104.7 ± 0.63
C=CC[N@@+]12CC[C@@]34c5ccccc5N5/C=C6/[C@H]7C[C@H]8[C@@]9(CC[N@@+]8(CC=C)C/C7=C/CO)c7ccccc7N(/C=C(/[C@@H](C[C@@H]31)/C(=C\CO)C2)[C@H]54)[C@@H]69 [Alcuronium chloride] | 66.1 ± 7.6 | 65.8 ± 5.3
CCCC(C(=O)OCCN(CC)CC)(c1ccccc1)c1ccccc1 [Proadifen hydrochloride] | 101 ± 2.5 | 107 ± 3.2
Clc1ccc(COC(Cn2ccnc2)c2ccc(Cl)cc2Cl)cc1 (stereo unspecified) [Econazole nitrate] | 2.22 ± 0.64 | 1.78 ± 0.52
CO/N=C1\CN(c2nc3c(cc2F)c(=O)c(C(=O)O)cn3C2CC2)CC1CN (stereo unspecified) [Gemifloxacin mesylate] | 101 | 101.7 ± 0.84
Clc1ccccc1C(c1ccccc1)(c1ccccc1)n1ccnc1 [Clotrimazole] | 2.38 ± 1.8 | 1.89 ± 1.1
O=C(O)c1cc(=O)c2c(OCC(O)COc3cccc4oc(C(=O)O)cc(=O)c34)cccc2o1 [Cromolyn disodium salt] | 97.8 ± 1.3 | 96.28 ± 0.21
NC[C@H]1CC[C@H](C(=O)O)CC1 [Tranexamic acid] | 99.75 ± 0.64 | 102.2 ± 0.73
C=CCc1ccccc1OCC(O)CNC(C)C (stereo unspecified) [Alprenolol hydrochloride] | 104 ± 0.79 | 101.6 ± 0.73
CC(=O)OC(C)C[N+](C)(C)C (stereo unspecified) [Methacholine chloride] | 104 ± 5.1 | 97.64 ± 0.73
CCCCOc1ccc(CC(=O)NO)cc1 [Bufexamac] | 94.2 ± 1.1 | 88.1 ± 2.9
Cc1ccc(O)c([C@H](CCN(C(C)C)C(C)C)c2ccccc2)c1 [Tolterodine tartrate] | 96.7 ± 2.7 | 97.95 ± 0.42
CCSc1ccc2c(c1)N(CCCN1CCN(C)CC1)c1ccccc1S2 [Thiethylperazine dimalate] | 3.02 ± 0.16 | 2.73 ± 0.42
Cc1c(O)cccc1C(=O)N[C@@H](CSc1ccccc1)[C@H](O)CN1C[C@H]2CCCC[C@H]2C[C@H]1C(=O)NC(C)(C)C [Nelfinavir mesylate] | 113.9 ± 0.16 | 111 ± 1.4
CN(C)CCC(c1ccccc1)c1ccccn1 (stereo unspecified) [Pheniramine maleate] | 101 ± 6.5 | 98.6 ± 3.1

Structure (SMILES) | growth yield (40 h) [%] | growth yield (72 h) [%]
Cc1c(F)c(N2CCNC(C)C2)cc2c1c(=O)c(C(=O)O)cn2C1CC1 (stereo unspecified) [Grepafloxacin] | 99.9 ± 1.4 | 97.53 ± 0.63
N=C(N=C(N)N)N1CCOCC1 [Moroxidine hydrochloride] | 106 ± 4.3 | 104 ± 1.9
CC(=O)OCC(=O)[C@@]12OC3(CCCC3)O[C@@H]1C[C@H]1[C@@H]3CCC4=CC(=O)C=C[C@]4(C)[C@@]3(F)[C@@H](O)C[C@@]12C [Amcinonide] | 97.5 ± 4.1 | 98.8 ± 2.5
CCCC(=O)Nc1ccc(OCC(O)CNC(C)C)c(C(C)=O)c1 (stereo unspecified) [Acebutolol hydrochloride] | 101 ± 7.3 | 98.1 ± 3.9
CC(=O)Nc1ccc(OCC(O)CNC(C)C)cc1 (stereo unspecified) [Practolol] | 102.1 ± 0.48 | 104.6 ± 0.94
CN1[C@@H]2CC[C@H]1C[C@@H](OC(c1ccccc1)c1ccccc1)C2 [Benztropine mesylate] | 105 ± 3.6 | 102 ± 1.7
O=C(Nc1ccccc1)OCC(CN1CCCCC1)OC(=O)Nc1ccccc1 (stereo unspecified) [Diperodon hydrochloride] | 102.1 ± 0.16 | 103.51 ± 0.1
CCCCC1C(=O)N(c2ccccc2)N(c2ccccc2)C1=O [Phenylbutazone] | 115 ± 7.9 | 110 ± 6.8
COCCCOc1cc(C[C@@H](C[C@H](N)[C@@H](O)C[C@H](C(=O)NCC(C)(C)C(N)=O)C(C)C)C(C)C)ccc1OC [Aliskiren hemifumarate] | 98.48 ± 0.32 | 99.11 ± 0.73
CCCCOC(=O)c1ccc(O)cc1 [Butylparaben] | 46.4 ± 2.2 | 49.5 ± 0.84
CCCc1nc2c(C)cc(-c3nc4ccccc4n3C)cc2n1Cc1ccc(-c2ccccc2C(=O)O)cc1 [Telmisartan] | 103 ± 6.5 | 97.4 ± 3.5
CC(=O)/N=c1/sc(S(N)(=O)=O)nn1C [Methazolamide] | 98.2 ± 2.5 | 97 ± 2.4
N=C(N)N1CCc2ccccc2C1 [Debrisoquin sulfate] | 97.5 ± 1.3 | 101.8 ± 0.52
COCCCOc1ccnc(C[S+]([O-])c2nc3ccccc3[nH]2)c1C (stereo unspecified) [Rabeprazole Sodium salt] | 99.6 ± 3.6 | 98.3 ± 3.2
O=C(O)Cc1cc(I)c(Oc2ccc(O)c(I)c2)c(I)c1 [Tiratricol, 3,3',5-triiodothyroacetic acid] | 28.9 ± 16 | 46.6 ± 17
CNCC[C@@H](Oc1ccccc1C)c1ccccc1 [Tomoxetine hydrochloride] | 97.69 ± 0.79 | 100.8 ± 0.52
